# In FireProtDB (doi:10.1006/jmbi.2001.4482):
# Settings: Homo sapiens; pH 6.5; 25 °C; GdnHCl; Fluorescence; Mes 10 mM; reversible: Unknown
substance,measurement,value
Interleukin-1 beta wild type (no sequence given),denaturant m value,5.5 kcal/mol/M
same,unfolding free energy,7.6 kcal/mol
